Among all 44,000 compounds or so, about 340 (0.77%) were called active. Roughly 5% stayed inconclusive and do not appear here. The call rests on the fitted dose curve; in most records, active means well fitted inhibition curve with a large enough effect; inconclusive means small, poorly fitted or top-dose-only effect; inactive means flat fitted curve, though single readings scatter. Some of the results follow.
Experiment: Acumen qHTS Assay for Inhibitors of the mTORC1 Signaling Pathway in MEF (Tsc2-/-, p53-/-) Cells: Sytravon;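 further: plate controls were DMSO for no effect and rapamycin for full effect; nearly all actives have a fitted effect of over 50% in size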
Settings: phospho-rpS6 immunofluorescence/PI, 24 h; series mostly up to 38.3 µM; activity change, negative = inhibition: at the top concentration
Procedure, shortened: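 Compounds act on Tsc2-/-, p53-/- fibroblasts carrying an empty vector for 24 h before fixation and dual staining for phospho-S6 and DNA (propidium iodide). Values are percentages of cells above a rapamycin-defined pS6/PI threshold.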

Activity change, negative = inhibition, inactive:
CCCCn1c(=O)n(-c2cc(OC)ccc2OC)c(=O)c2c3c(sc21)CN(C(C)=O)CC3 0.61%
COc1ccc(-n2nc(C(=O)Nc3cc(C)ccn3)c3c4ccccc4n(C)c3c2=O)cc1 -3.15%
CCOc1ccc(-n2nc3ccc(NC(=O)c4ccc(OC)c(Cl)c4)cc3n2)cc1 2.46%
Cc1cc(Nc2cccc(Cl)c2)nc2ccc(NC(=O)c3cncc(Br)c3)cc12 -7.12%
O=C(CC1N=C2c3ccccc3N=C(SCc3ccccc3Cl)N2C1=O)NCCc1ccccc1 (centres undefined) -3.29%
Cc1ccc2c(=O)cc(C(=O)Nc3sc4c(c3C(=O)NCC3CCCO3)CCC4)oc2c1 (centres undefined) 0.167%
Cc1oc(-c2ccccc2Cl)nc1CS(=O)(=O)CC(=O)NCc1ccc(F)cc1 -0.891%
CCC(C(=O)NCc1ccccc1OC)n1nc(C)n2c(cc3occc32)c1=O (centres undefined) -4.74%
CCOC(=O)Cn1c(=O)n(CC2CCCO2)c2nc(-c3ccccc3)nc(C(N)=O)c21 (centres undefined) 3.16%
COc1ccc(C(=O)Nc2ccc(N(C)Cc3ccccc3)c(C(=O)O)c2)cc1 -0.737%
CCOC(=O)C1=C(CN2CCN(c3ccccc3OC)CC2)NC(=O)NC1c1ccccc1 (centres undefined) 2.13%
CC(C)NC(=O)N1[C@H](c2cccs2)[C@@H](C)C(=O)[C@@H](C)[C@@H]1c1cccs1 6.69%
O=C(CN1CCCN(Cc2ccccc2F)S1(=O)=O)Nc1ccc(F)c(Cl)c1 -3.43%
Cc1cc(C)cc(NC(=O)N2CCC(CN3CCOCC3)CC2)c1 -5.36%
COc1ccc(-c2nnc(SCC(=O)NCCC(C)C)nc2-c2ccc(OC)c(OC)c2)cc1OC 0.413%
Cc1ccc(CNCc2ccccc2Cl)s1 -14.3%
COCc1cc(C)nc2c1C(=O)NC(c1ccc(F)cc1)N2Cc1ccccc1 (centres undefined) 1.98%
COC(=O)c1cc2oc(C)cc2n1CC(=O)Nc1ccc(C(C)C)cc1 0.647%
CCCCNC(=O)c1ccc2c(=O)n(Cc3ccc(OC)cc3)c(=O)[nH]c2c1 -9.73%
CC1Cc2ccccc2N1C(=O)CSc1nc2ccc(NC(=O)COc3ccccc3)cc2s1 (centres undefined) -3.45%
CC1=C(C(=O)NCc2cccc(F)c2)C2(CCCCC2)OC1=O -0.174%
N#Cc1c(C(F)(F)F)cc(-c2cccs2)nc1SCc1ccc(F)cc1 0.0931%
CCOC(=O)C(C)Sc1ccc2nnc(CCNS(=O)(=O)c3ccc(C)cc3)n2n1 (centres undefined) -9.16%
Cc1ccccc1CSc1cn(CC(=O)N2CCCCC2)c2ccccc12 -9.7%
CCOC(=O)c1c(C)oc2nc(C)nc(NCC3CCN(Cc4ccc(C)cc4)CC3)c12 -3.5%
Cc1nn(C)cc1CN(C)C(=O)c1cc(-c2ccccc2)nc2ccc(Br)cc12 0.98%
CCOc1ccc(CCNC(=O)c2oc(=O)c3ccccc3c2-c2ccc(C)cc2)cc1OCC 0.808%
Cc1ccc(NC(=O)CCS(=O)(=O)c2ccc(Br)s2)c(Br)c1 1.74%
CC(C)(C)c1ccc(C(=O)NCCc2csc(-c3ccc(Cl)cc3)n2)cc1 -1.18%
Cc1ccc(C)c(N2CCN(S(=O)(=O)c3ccc4c(c3)C(C(C)C)C(=O)N4)CC2)c1 (centres undefined) -7.42%
CSc1ncc(C(=O)NCc2ccccc2F)c(-c2ccccc2)n1 -0.244%
CCCc1ccc(OCC(=O)Nc2sc(C(=O)OCC)c(C)c2C(=O)OCC)cc1 -7.07%
CCc1ccccc1NS(=O)(=O)c1ccc2[nH]cc(C(=O)N(CC)Cc3ccccc3)c(=O)c2c1 1.64%
COc1ccc(OC)c(C2CC(=O)Nc3c2c(=O)[nH]c2ncnn32)c1 (centres undefined) 0.775%
COc1ccc(C2NC(=O)N(C)C3=C2C(=O)N(c2ccc(C(=O)O)cc2)C3)cc1 (centres undefined) 6.12%
CCc1ccc(C2CC(=O)c3c([nH]c(C(=O)OC4CCCC4)c3C)C2)cc1 (centres undefined) -5.75%
COc1cccc(-c2nc(CS(=O)(=O)CC(=O)N3CCN(c4cc(C)ccc4C)CC3)c(C)o2)c1 -1.65%
CCOC(=O)c1ccc(CN(Cc2ccc(F)cc2)S(=O)(=O)c2ccc(F)c(C(=O)Nc3c(C)cccc3C)c2)cc1 10.6%
CCc1ccc2occ(CC(=O)Nc3c(C(=O)c4ccc(C)cc4)oc4ccccc34)c2c1 1.96%
COc1ccc(S(=O)(=O)Nc2c(C)nc3nc[nH]n3c2=O)cc1 -8.08%
Cc1ccc2c(CNCc3ccc(C)o3)c(C(=O)O)n(Cc3ccccc3C)c2c1 -6.79%
Cc1cc(S(=O)(=O)C(CNC(=O)c2ccc(F)c(F)c2)c2cccs2)ccc1F (centres undefined) 15.4%
Cc1ccc(S(=O)(=O)n2nc(-c3ccc(Cl)cc3)nc2NCc2ccc(F)cc2)cc1 -12.6%
CC(=O)N1CCCc2cc(S(=O)(=O)N3CCCC(C(=O)N4CCN(c5ccccc5)CC4)C3)ccc21 (centres undefined) -17.8%
Cc1cc(C)c2c(CC(=O)Nc3ccc(S(=O)(=O)Nc4nc(C)cc(C)n4)cc3)coc2c1 2.06%
COc1ccc(CNC(=O)c2cc3cc(OC)ccc3oc2=O)cc1 -23.5%
COc1ccc2c(c1)cc1c(=O)n(CC(=O)NC(C)CCc3ccccc3)nc(C)n12 (centres undefined) -2.49%
Cc1ccc(-c2ccc(=O)n(CC(=O)NCCc3ccccc3)n2)cc1 4.99%
Cc1ccc(-n2ncc3c(Nc4cccc(C(=O)O)c4)ncnc32)cc1 12.9%
CCCSCCCNC(=O)C1CCN(c2nc3ccccc3nc2C(F)(F)F)CC1 -3.33%
CCCCn1cnc2cc(NCc3ccccc3Cl)ccc21 -23.4%
Cc1cccc(/C=C/c2onc(C)c2S(=O)(=O)N2CCC(C(=O)N3CCCCC3)CC2)c1 -1.54%
COc1ccc(-c2[nH]c(-c3ccc(Cl)cc3)nc2SCC(=O)NCC2CCCO2)cc1 (centres undefined) -0.313%
Cc1ccc(NC(=O)C(=O)NCC(c2cccnc2)N2CCN(Cc3ccccc3)CC2)cc1F (centres undefined) -3.17%
O=C(Cc1cccs1)NC1CC(=O)N(c2ccc(F)cc2)C1 (centres undefined) 0.388%
Cc1oc(-c2ccc(C(=O)NCc3ccccc3)cc2)nc1CN1CCc2ccccc21 9.98%
COc1ccc(-c2csc3ncnc(Nc4cccc(OC)c4)c23)cc1 0%
CSc1cccc(NC(=O)Nc2ccccc2OCc2cc(=O)n3cc(C)ccc3n2)c1 9%
CCC(=O)N1CCc2cc(Br)cc(S(=O)(=O)CCC(=O)N3CCN(c4cccc(C)c4)C(C)C3)c21 (centres undefined) -10.9%
CCc1ccc(S(=O)(=O)Nc2ccc3c(c2)n(C)c(=O)c(=O)n3C)cc1 -12.8%
COc1ccc(C(=O)Nc2ccc3nc(SCC(=O)N4CCc5ccccc54)sc3c2)cc1 0%
Cc1ccc2c(c1)C(c1ccc(F)cc1)N(C(=O)c1ccc(S(=O)(=O)N3CCCCC3)cc1)CC(=O)N2 (centres undefined) 7.35%
O=C(NCc1ccc(Cl)cc1)NCc1noc2ccccc12 -2.99%
COc1ccc(NC(=O)CCNS(=O)(=O)c2ccc3c(c2)CCCC(=O)N3)cc1Cl -7.19%
COC(=O)c1ccccc1NC(=O)C1=CC(c2cccs2)=NS(=O)(=O)N1C -8.84%
COc1ccc(-n2nc3cc(C)c(NC(=O)c4ccc(-c5ccc(Cl)cc5)o4)cc3n2)cc1 -2.57%
Cc1ccc(S(=O)(=O)c2nnn(-c3ccc(F)c(Cl)c3)c2N)cc1 -2.54%
COc1ccc(OCc2ccc(-c3nc(C#N)c(NC(C)c4ccccc4)o3)o2)cc1 (centres undefined) -7.91%
Cc1nn(CC(=O)Nc2ccc(OC(F)(F)F)cc2)c(=O)c2c(C)n(-c3ccc(Cl)cc3)nc12 -1.26%
CCOc1ccc2nc(N3CCCC(C(=O)NCCc4ccc(OCC)c(OCC)c4)C3)sc2c1 (centres undefined) -5.72%
COc1ccc(CCNC(=O)c2nc(-c3ccc(Cl)cc3)n3c2CCCCC3)c(OC)c1 -8.39%
CCc1cccc(-n2c(=O)c3cccnc3n2CC(=O)Nc2c(C)cc(C)cc2C)c1 0%
COc1ccc(N(Cc2cc3cccc(C)c3[nH]c2=O)C(=O)c2cccc(Cl)c2)cc1 -1.13%
COc1ccc2nc(N(Cc3cccnc3)C(=O)Cc3ccccc3)sc2c1 -2.16%
CC(=O)N1CCc2cc(S(=O)(=O)C(C)CC(=O)Nc3ccc(Br)c(C)c3)ccc21 (centres undefined) -6.96%
CN(C)S(=O)(=O)c1ccc(C(=O)NCCSc2c(-c3ccccc3)[nH]c3ccccc23)cc1 -10%
CC(=O)Nc1ccc(S(=O)(=O)NC2=NCN(CCO)CN2)cc1 0.0321%
Fc1cccc(-c2nnn3c2nc(NC2CCCCC2)c2ccccc23)c1 -6.54%
COc1ccc(NC(=O)C2=C(C)Nc3ncnn3C2c2cccn2C)cc1 (centres undefined) -1.74%
COc1ccccc1CNC(=O)CN1C(=O)COc2ccc(S(=O)(=O)NC3CCCC3)cc21 -6.14%
O=C(C1CCN(S(=O)(=O)Cc2ccccc2)CC1)N1CCN(c2cccc(C(F)(F)F)c2)CC1 4.43%
CC1CCN(CC2CCN(C(=O)Nc3ccc(Br)cc3F)CC2)CC1 0.0748%
Cc1cccc(-n2c(CNC(=O)c3cccc(F)c3)nnc2SCC(=O)Nc2ccccc2F)c1 0.919%
Cc1ccc(Cl)cc1-n1ncc2c(N3CCN(Cc4ccccc4)CC3)ncnc21 -21.6%
CCOC(=O)c1c(NC(=O)c2ccc(S(=O)(=O)N(C)C3CCCCC3)cc2)sc2c1CCN(C(C)C)C2 -9.7%
Cc1noc(C)c1S(=O)(=O)N(CC(=O)NCCc1ccccc1)c1ccc(C(C)C)cc1 -2.01%
CCOCCCN1C(=O)c2ccccc2CC1(C)C(=O)NC1CCCCC1 (centres undefined) -2.2%
COC(=O)c1ccccc1NC(=O)c1sc2nc(C)cc(C)c2c1NC(=O)c1ccccc1OC -1.41%
COc1ccc(NC(=O)CSc2nc3c(oc4ccccc43)c(=O)n2Cc2ccco2)cc1Cl -5.01%
CC1CCN(S(=O)(=O)c2nnc(NC(=O)c3cccc(Cl)c3)s2)CC1 0%
Cc1ccc(CCNc2ncnc3onc(-c4ccc(Cl)cc4)c23)cc1 1.78%
COc1ccc(CNC(=O)CN2C(=O)CSc3ccc(S(=O)(=O)N4CCC(C)CC4)cc32)cc1 2.11%
COc1ccc(/C=C/C(=O)Nc2nc(-c3cccs3)ns2)cc1 -5.93%
COc1ccc(-c2nc(S(=O)(=O)c3ccc(Cl)cc3)c(NCc3ccccc3)o2)cc1 -1.44%
